From the GPR68 mutational scans of Howard et al. (2025) come the findings set out here.

B1: GPR68, Q15743 (parent)
chain: MGNITADNSSMSCTIDHTIHQTLAPVVYVTVLVVGFPANCLSLYFGYLQIKARNELGVYLCNLTVADLFYICSLPFWLQYVLQHDNWSHGDLSCQVCGILLYENIYISVGFLCCISVDRYLAVAHPFRFHQFRTLKAAVGVSVVIWAKELLTSIYFLMHEEVIEDENQHRVCFEHYPIQAWQRAINYYRFLVGFLFPICLLLASYQGILRAVRRSHGTQKSRKDQIQRLVLSTVVIFLACFLPYHVLLLVRSVWEASCDFAKGVFNAYHFSLLLTSFNCVADPVLYCFVSETTHRDLARLRGACLAFLTCSRTGRAREAYPLGAPEASGKSGAQGEEPELLTKLHPAFQTPNSPGSGGFPTGRLA

The least precise scores are not listed. Two further conditions of the source, in which the scores hardly spread, are not listed. In variant names, del marks residues removed and ins residues inserted between the two positions. For part of these data: The data file names ogerin without a concentration.

Series [1] covers variants of B1. The series can be described thus: cAMP reporter score (Enrich2 score, wild type = 0); higher = more signal; HEK293T, FACS bins.
The variants in series [2] derive from B1. The series can be described thus: surface expression score (Enrich2 score, wild type = 0); higher = more signal; HEK293T, FACS bins.

In the case of Y106G, the cAMP reporter score in series [1] (pH 5.5) was -1.13; in series [1] (pH 6) it was -0.829; in series [1] (pH 6, modulator: ogerin), -1.24; in series [1] (pH 6.5, modulator: ogerin), -0.905. Besides, the surface expression score in series [2] was -2.29.

Regarding Y106D, the cAMP reporter score is 0.221 in series [1] (pH 5.5); -0.005 in series [1] (pH 6); -0.198 in series [1] (pH 6, modulator: ogerin); -0.731 in series [1] (pH 6.5, modulator: ogerin). In series [2], the surface expression score was -2.01.

As for Y106M, the cAMP reporter score in series [1] (pH 5.5) is -1.31; in series [1] (pH 6), -1.02; in series [1] (pH 6, modulator: ogerin), -1.56; in series [1] (pH 6.5, modulator: ogerin) it was -0.677. Further, the surface expression score in series [2] was -1.09.

As to Y106S, the cAMP reporter score in series [1] (pH 5.5) was -0.454; in series [1] (pH 6), -1.9; in series [1] (pH 6, modulator: ogerin) it was -0.448; in series [1] (pH 6.5, modulator: ogerin), -1.48. Further, in series [2], the surface expression score is -0.86.

On to Y106R, for which the cAMP reporter score is -1.48 in series [1] (pH 5.5); -0.961 in series [1] (pH 6); -1.75 in series [1] (pH 6, modulator: ogerin); -1.14 in series [1] (pH 6.5, modulator: ogerin). Besides, the surface expression score in series [2] was -2.7.

For the variant Y106E, the cAMP reporter score is -0.96 in series [1] (pH 5.5); -1.23 in series [1] (pH 6); -1.72 in series [1] (pH 6, modulator: ogerin); -1.36 in series [1] (pH 6.5, modulator: ogerin). Further, in series [2], the surface expression score was -1.59.

For Y106A, the cAMP reporter score in series [1] (pH 5.5) was -1.15; in series [1] (pH 6), -0.514; in series [1] (pH 6, modulator: ogerin) it was -1.6; in series [1] (pH 6.5, modulator: ogerin) it was -1.19. The surface expression score in series [2] was -1.06.

Turning to Y106N, the cAMP reporter score was -0.586 in series [1] (pH 5.5); 0.414 in series [1] (pH 6); -2.46 in series [1] (pH 6, modulator: ogerin); -0.445 in series [1] (pH 6.5, modulator: ogerin).

Take Y106T: the cAMP reporter score in series [1] (pH 5.5) was 1.07; in series [1] (pH 6, modulator: ogerin), -0.795; in series [1] (pH 6.5, modulator: ogerin), -1.11. The surface expression score in series [2] is -2.59.

For S108_V109del, the cAMP reporter score was -0.7 in series [1] (pH 5.5); -1.45 in series [1] (pH 6); -2.2 in series [1] (pH 6, modulator: ogerin); -1.4 in series [1] (pH 6.5, modulator: ogerin). In addition, the surface expression score in series [2] is -2.6.

Take I105_Y106insGS: the cAMP reporter score in series [1] (pH 5.5) is -2.58; in series [1] (pH 6), -1.39; in series [1] (pH 6, modulator: ogerin), -3.68. In series [2], the surface expression score was -2.41.

On to R119del, for which the cAMP reporter score in series [1] (pH 5.5) is -1.88; in series [1] (pH 6), -1.17; in series [1] (pH 6, modulator: ogerin) it was -1.39; in series [1] (pH 6.5, modulator: ogerin) it was -1.25. Also, in series [2], the surface expression score is -2.93.

As for I115del, the cAMP reporter score is -1.43 in series [1] (pH 5.5); 0.085 in series [1] (pH 6); -1.18 in series [1] (pH 6, modulator: ogerin); -0.566 in series [1] (pH 6.5, modulator: ogerin). For the same variant, the surface expression score in series [2] is -1.62.

As to C114_I115insGS, the cAMP reporter score was -1.42 in series [1] (pH 5.5); -0.842 in series [1] (pH 6); -1.46 in series [1] (pH 6, modulator: ogerin); -1.47 in series [1] (pH 6.5, modulator: ogerin). For the same variant, the surface expression score in series [2] was -2.69.

Regarding L135K, the cAMP reporter score was 0.071 in series [1] (pH 5.5); -1.01 in series [1] (pH 6); 0.119 in series [1] (pH 6, modulator: ogerin); -0.684 in series [1] (pH 6.5, modulator: ogerin). In addition, the surface expression score in series [2] was -2.29.

Consider L135A, for which the cAMP reporter score in series [1] (pH 5.5) was 0.303; in series [1] (pH 6) it was 0.053; in series [1] (pH 6, modulator: ogerin) it was -0.196; in series [1] (pH 6.5, modulator: ogerin) it was -1.08.

For L135F, the cAMP reporter score in series [1] (pH 5.5) was -0.025; in series [1] (pH 6) it was 0.669; in series [1] (pH 6, modulator: ogerin) it was -0.721; in series [1] (pH 6.5, modulator: ogerin), -0.009. For the same variant, the surface expression score in series [2] is -0.574.

Regarding L135E, the cAMP reporter score in series [1] (pH 5.5) was -1.14; in series [1] (pH 6), 0.893; in series [1] (pH 6, modulator: ogerin), -0.978; in series [1] (pH 6.5, modulator: ogerin), -1.18. In addition, the surface expression score in series [2] was -2.5.

For L135M, the cAMP reporter score in series [1] (pH 5.5) stood at 0.803; in series [1] (pH 6), 2; in series [1] (pH 6, modulator: ogerin) it was 1.54; in series [1] (pH 6.5, modulator: ogerin), 2.36. For the same variant, in series [2], the surface expression score came to 1.06.

For the variant L135C, the cAMP reporter score is 0.249 in series [1] (pH 5.5); -0.568 in series [1] (pH 6); 0.176 in series [1] (pH 6, modulator: ogerin); -0.095 in series [1] (pH 6.5, modulator: ogerin). Also, the surface expression score in series [2] is -0.556.

Consider L135H, for which the cAMP reporter score is 0.89 in series [1] (pH 5.5); -1.31 in series [1] (pH 6); 0.065 in series [1] (pH 6, modulator: ogerin); -0.06 in series [1] (pH 6.5, modulator: ogerin). Also, the surface expression score in series [2] is -1.67.

L135N: the cAMP reporter score is -0.424 in series [1] (pH 5.5); -0.639 in series [1] (pH 6, modulator: ogerin); -0.458 in series [1] (pH 6.5, modulator: ogerin). Besides, the surface expression score in series [2] is -0.062.

L135I: the cAMP reporter score in series [1] (pH 5.5) was 0.197; in series [1] (pH 6) it was 1.29; in series [1] (pH 6, modulator: ogerin), -0.167; in series [1] (pH 6.5, modulator: ogerin), 0.505. The surface expression score in series [2] was -0.397.

With L135G, the cAMP reporter score in series [1] (pH 5.5) was -0.588; in series [1] (pH 6) it was -0.761; in series [1] (pH 6, modulator: ogerin), -0.652; in series [1] (pH 6.5, modulator: ogerin), -0.631. For the same variant, the surface expression score in series [2] is -3.49.

For the variant A122del, the cAMP reporter score was -1.6 in series [1] (pH 5.5); -0.903 in series [1] (pH 6); -1.13 in series [1] (pH 6, modulator: ogerin); -1.11 in series [1] (pH 6.5, modulator: ogerin). In series [2], the surface expression score was -2.33.

With S116_V117del, the cAMP reporter score in series [1] (pH 5.5) is -0.505; in series [1] (pH 6), -0.313; in series [1] (pH 6, modulator: ogerin) it was -1.65; in series [1] (pH 6.5, modulator: ogerin) it was -0.7. Further, the surface expression score in series [2] was -2.52.

Take L101_Y102del: the cAMP reporter score in series [1] (pH 5.5) is -0.989; in series [1] (pH 6) it was -1.46; in series [1] (pH 6, modulator: ogerin), -1.34; in series [1] (pH 6.5, modulator: ogerin), -0.587. Also, in series [2], the surface expression score is -2.86.

In the case of C113del, the cAMP reporter score was -1.34 in series [1] (pH 5.5); -0.837 in series [1] (pH 6); -1.09 in series [1] (pH 6, modulator: ogerin); -1.9 in series [1] (pH 6.5, modulator: ogerin). Further, the surface expression score in series [2] was -2.29.

Turning to A124_H125insG, the cAMP reporter score in series [1] (pH 5.5) is -0.498; in series [1] (pH 6), -0.955; in series [1] (pH 6, modulator: ogerin), -1.98; in series [1] (pH 6.5, modulator: ogerin), -0.711. Besides, the surface expression score in series [2] is -2.66.

For L101_Y102insG, the cAMP reporter score in series [1] (pH 5.5) is -1.32; in series [1] (pH 6) it was -0.72; in series [1] (pH 6, modulator: ogerin) it was -1.77. Further, in series [2], the surface expression score is -1.47.

For the variant C113_C114insGSG, the cAMP reporter score is -0.678 in series [1] (pH 5.5); -2.06 in series [1] (pH 6); 0.008 in series [1] (pH 6.5, modulator: ogerin).
